± gives the standard deviation. The entries are a selection whose mix differs from that of the whole data set.
The sequences below were run on MIWI (PIWIL1) piRISC loaded with L1MC piRNA (30 nt) (assay: pre-steady-state target cleavage rate (min^-1); MIWI and MILI are mouse PIWI proteins and EfPiwi is from a freshwater sponge; tags in brackets are library labels; higher = faster piRNA-guided slicing of the target). Details: guide: L1MC piRNA 5'p-UAACUAAAUACUAUGCAAGCUGUAGGUCCU; auxiliary factor: 500 nM mouse GTSF1.
Summary of the method: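 In HEPES–potassium acetate buffer at 33 °C, […] transcribed, DNA-blocked target RNA library was mixed with 1 nM active affinity-purified piRISC carrying one synthetic guide, with or without 500 nM GTSF1 partner protein, for 0–8 or 0–960 min. Uncleaved targets were sequenced and normalised to depth and to weakly complementary targets; three trials were pooled and k3 was capped at 0.0001 min^-1. The pre-steady-state cleavage rate followed from a burst-and-steady-state fit.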
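Further: 1 nM active piRISC with 0.1 nM target library at 33 °C single turnover.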

**Q.** UCGACCUACUGCUUGCAUAGUAUUUAGUUA was tested. Which “pre-steady-state target cleavage rate” value did it give?
**A.** The value was 1.41 ± 0.035.

**Q.** How did the “pre-steady-state target cleavage rate” value turn out when UCCUGGAACAGCUUGCAUAGUAUCUUAGUUA was run?
**A.** The value was 0.777 ± 0.046.

**Q.** How did the “pre-steady-state target cleavage rate” value turn out when UGGAGCUACAGCUUGCAUAGUAUUAAGUUA was run?
**A.** The value was 0.802 ± 0.051.

**Q.** With UCCUGGAACUGCUUGGAUAGUAUUUAGUUA as the sequence, how does the “pre-steady-state target cleavage rate” value read?
**A.** Its value is 0.975 ± 0.05.

**Q.** For AGGAGGAACAGCUUGCAUAGUAUUUACAAA, which “pre-steady-state target cleavage rate” value is on record?
**A.** Its value is 0.442 ± 0.073.

**Q.** For UCCUGGAUGAAGCUUGCAUAGUAUUUAGUUA, which “pre-steady-state target cleavage rate” value is on record?
**A.** The value was 0.716 ± 0.035.

**Q.** UCGACCUACAGCUUGGAUAGAAUUUAGUUA was tested. Which “pre-steady-state target cleavage rate” value did it give?
**A.** The value was 0.365 ± 0.044.

**Q.** UCCACCUACAGCUUGGAUAGUUUUUAGUUA was tested. Which “pre-steady-state target cleavage rate” value did it give?
**A.** Its value is 0.277 ± 0.022.

**Q.** Which “pre-steady-state target cleavage rate” value does the source give for AGGACCUACAGCUUGCUUAGUAUUUUGUUA here?
**A.** The value was 0.884 ± 0.054.

**Q.** With UCCUGGAACACCUUGCAUAGAAUUUAGUUA as the sequence, how does the “pre-steady-state target cleavage rate” value read?
**A.** Its value is 0.208 ± 0.051.

**Q.** UCCUGGAACAGCUUGCAUAGUUUUUACUUA was tested. Which “pre-steady-state target cleavage rate” value did it give?
**A.** Its value is 0.125 ± 0.021.

**Q.** Which “pre-steady-state target cleavage rate” value does the source give for UGGACCUACAGCUUGCAUAGUAUUUAGAAA here?
**A.** Its value is 0.515 ± 0.049.

**Q.** Which “pre-steady-state target cleavage rate” value does the source give for UCCUGGAUGUCCUUGCCUAGUAUUUAGUUA here?
**A.** The value was 0.0145 ± 0.003.

**Q.** For UCCACCUACAGCUUGCAUAGUAUAAUGUUA, which “pre-steady-state target cleavage rate” value is on record?
**A.** Its value is 0.307 ± 0.031.

**Q.** With UCCUGGAUGAGCUUGAAUAGUAUUUAGUUA as the sequence, how does the “pre-steady-state target cleavage rate” value read?
**A.** Its value is 0.944 ± 0.045.

From the supplement of paper PMC10338343
